This is an account of results in the RNAGym collection of RNA variant scans (doi:10.7554/elife.90254).

The chains are these.
B1: OR4K15 (parent)
chain: GUUAACGGUCAUAGGCCAUGGAAACUAGGAGCACCAUUUCGCUGCCAGUGAAGAAAUGAACAAAGAAAAUCUGGGCCAGGCAGGCAUCAAAAGAAAUAGUCUUGCGCUCAACCAGAAAGUCUGUAAUCAUUUUAAGGGUA

Read counts are not given, so values of variants with three or more changes are uncertain.

Variants of B1 are the subject of the data set. The data set is described as follows: self-cleavage, relative activity (ratio to wild type); higher = more cleavage; in vitro, sequencing; the parent is a self-cleaving ribozyme.
Consider U38C A78G U127A, for which the self-cleavage worked out at 0.43.
The same measure for U38C A67G A95G: 1.06; for C40A A82G A114C: 0.06; for U39C A126G A140G: 1.81.
With C40U A66G U87G, the self-cleavage is 0.32.
The same measure for U39A A64G U100C U102A U122A: 2.41; for U38C U57C U132C A135G: 1.03.
Consider U39A A51G U57G, for which the self-cleavage was found to be 0.26.
The same measure for U38C A69C U130C: 0.6; for U39A A82G A89G G137U: 0.52.
As to U38C C42U A59G, the self-cleavage worked out at 1.68.
The same measure for U39C U57A A67G A126G: 1.33.
The same measure for U38C A67G A129G: 0.65; for U39C A68G G75U A86G: 0.12; for C40U A60G U127C: 0.72.
On to U39A A86G U102C A116C, for which the self-cleavage was determined as 0.81.
Take U39C U70C A95G U132C: the self-cleavage amounted to 0.35.
The same measure for U39C A51G A82G A126G U139A: 0.33; for U39A U43C A47U: 1.06.
As for U39C A68G A116G A126G, the self-cleavage was 0.25.
The same measure for U38C A56G A96U: 1.68; for U39C U49C A51U A111G: 0.03; for U38C A56G A62U U122C: 1.14.
The same measure for U39A A47U A59G G99A A110G A118G: 0.01; for U39C U49C A118U: 0.08; for U39C A52C U100C A134G: 1.58.
Take U38C A82G A90G U133A: the self-cleavage was 0.32.
The same measure for U38G A52G A55G: 0.83.
The same measure for U38C G74A A90U: 0.82; for U39A A52G U132C: 1.6.
The same measure for U38C U57G U70C U87A A90G: 0.46; for U39A U57C C88U: 1.64.
Turning to U38C U49C A82U, the self-cleavage was 0.27.
The same measure for U38C U49C A82G: 0.27; for U38C A68G U103C: 2.
Take G41A A55G A63G: the self-cleavage is 2.1.
The same measure for U38C U39C A51G A55G A56G: 1.38; for U39C U49C A51G A67U A95G A96G A116G: 0.46; for U39A U57C A118U U130C: 0.24.
On to U43A A67U A92G, for which the self-cleavage turned out to be 2.25.
The same measure for U39C A52G A56G A110G A129G: 0.07; for U43A A82U A92G A117G: 0.19; for U38G U43A A92G U120A A129G: 1.05.
The same measure for U39C A95G U130C: 2.18.
The same measure for C40U A52G A118U: 0.93; for U39C A62U A68G A96U: 1.16.
Take U39A U49C C112G: the self-cleavage was 0.02.
The same measure for U39C A54U U131C: 2.34.
As for U39A A62G A66U, the self-cleavage was found to be 1.33.
The same measure for U39A U43C A82U U133G: 0.12.
With U39A A66G A98G U100C, the self-cleavage was determined as 1.94.
Regarding U38C A82U A96G, the self-cleavage came out at 0.3.
U39A A59G A116G: the self-cleavage stood at 0.32.
The same measure for G41C A117G A129U: 0.53; for U39C U102C U122C U133C: 1.13.
The same measure for U39C A56G A91G: 0.92.
The same measure for C40U A60C A68G: 1.77; for U38C U72C A126G A140G: 0.21.
As for U39C A92G A110G, the self-cleavage was 0.21.
The same measure for U39C A62G U72A: 0.23; for U43A A66G U108C U122C: 0.
The same measure for U38C A54G A95G U108A A116U: 0.01.
Regarding U38C A67G U100C, the self-cleavage amounted to 2.74.
On to U39C A52G A66G, for which the self-cleavage worked out at 1.63.
The same measure for U43A A55G A64G: 1.64; for U43A A78U A125G: 0.03; for U39A A55G A117G U130C: 2.41.
For U38C A55G A69G A78G A118G U139C A140G, the self-cleavage is 0.09.
U39A A47G A68G U108A: the self-cleavage is 0.04.
The same measure for U39A A118G U127A: 1.32.
Take U39C A62U A68U A82G: the self-cleavage is 0.79.
The same measure for G41A A59C A64G A90G: 0.93; for U39C A54G G58A: 1.8; for U39A A52G A60G A114U: 0.08.
The same measure for U39C A60G U132C: 1.18; for U38C A52U A126C U132C: 0.57.
As for U39C A91G A94U, the self-cleavage amounted to 1.03.
Turning to U39C A91G A94C, the self-cleavage came out at 0.42.
The same measure for U38G A91G U130C: 0.19.
With U39A A82G A92U, the self-cleavage was determined as 0.56.
The same measure for U39C A47U A52U U120A: 0.37.
In the case of U38C A55G A95U U120C, the self-cleavage was determined as 0.69.
The same measure for U39C A69G A82U U124A: 0.08; for U43A A67G A125U: 0.21; for C42U A54G A67G A68G A82G A111G U122C: 0.03.
For U43A A59G A64G, the self-cleavage came out at 0.93.
The same measure for U39C A68C A86G A118G: 1.63.
Take C42U A96U U108C: the self-cleavage worked out at 0.01.
The same measure for G41A A56G A63G: 1.07; for U39A G106A U108C: 0.
Regarding U38C U70G A89C G104A, the self-cleavage came to 0.06.
U38C U57C A82G: the self-cleavage was 0.6.
The same measure for C40A A78C U87C A90G A94U: 0.12; for U38C A92G A135G: 2.18.
The same measure for U38C A52U A59G A60G U97C A126G: 0.61; for U39C A66G A118G: 1.07; for U39A A47G A60G A67G: 1.05.
On to U38C U39A A51G A62G C77U U130C, for which the self-cleavage came to 0.66.
The same measure for U39C C77U A82G: 1.03.
For the variant U38G A60G A117G, the self-cleavage is 1.71.
Take C40U U43C A134G: the self-cleavage came to 0.81.
For the variant U39C A64G A111G A117G, the self-cleavage is 0.02.
The same measure for U39A A89G A96G: 0.88; for U38C A68G A110G: 0.13; for C40U A82G A110G: 0.04.
The same measure for C40U A47G U102C: 1.82; for U43A A86U U122C U132C: 0.79.
The same measure for G41A U49C U87C: 0.32; for G41A C45G U103C: 1.07.
As to U43A A52C A64G, the self-cleavage amounted to 1.52.
For U39A A60G A96G G115A, the self-cleavage was 0.02.
Regarding U39C U70C A111G, the self-cleavage worked out at 0.02.
The same measure for U39C A60G A111G: 0.05; for U39C G74U A91C U108C: 0.01; for U39C A56G A91U A95U: 1.86.
The same measure for U39C A59U A69G U87A: 0.89; for U39C C128U U132C: 1.34.
G41A A78G A89U U108C A117G: the self-cleavage turned out to be 0.01.
Regarding U38C A66G A67G A69U U122C, the self-cleavage was 1.56.
In the case of U39A C40U A54U A114U, the self-cleavage stood at 0.01.
With C42U A56G U57C A78G U131C, the self-cleavage turned out to be 0.25.
The same measure for U39C A78G U108G: 0.01; for U38C U39A A60G A90G: 0.48.
Turning to C40U A51G C61U A78U, the self-cleavage stood at 0.22.
For U39A A63G A94G, the self-cleavage turned out to be 2.47.
U39C A63G U122C: the self-cleavage stood at 1.43.
The same measure for U43A A47G A91G A95G A135G: 1.98; for U38C A68G A110U A125G: 0.42; for U39C U87C A95G U100C: 0.18.
The same measure for U39C A60G A82G: 0.52; for U38C U57C A68G A89G A140G: 1.54; for U38C U120A A129U: 1.05.
The same measure for U39C U43C A55G: 0.99; for U39A A90G A110G A117G: 0.25; for U39A A62G A92G A111U: 0.07.
Consider C40A A60U A96U, for which the self-cleavage was found to be 2.35.
The same measure for U39C A92G U122C: 0.93; for U38C A82U A96G U122A: 0.14; for U38C C85U A110G: 0.11.
The same measure for U38C A52G U87G: 0.58; for U39C A64U A66G A82G: 1.09; for U39C U43C A66G U103G U130C: 0.01.
The same measure for U43A A64G G119U U120C: 1.68.
For the variant U43A A62U A98U, the self-cleavage came to 1.26.
The same measure for C40A G80C A96G C107G C109U U120C: 0.03; for C42U U43C U87C U122A: 0.85.
The same measure for U38C A78U A86U A116G: 0.34.
For U38C A54G A68G, the self-cleavage was 1.52.
C40A U43C U130C: the self-cleavage was 0.62.
As to U43A A56G A89G, the self-cleavage amounted to 1.26.
Turning to U38C A56G G123A, the self-cleavage turned out to be 1.
Turning to C42A A54G A63C, the self-cleavage worked out at 1.24.
The same measure for U39A A68U U102C U120C: 2.22; for U38C U72C A90G A91G: 0.11.
The same measure for U38C U39A A54G: 1.4.
Regarding U38C U49G C77A A89G U124A U139A, the self-cleavage turned out to be 0.27.
For the variant U38C A110U A117G, the self-cleavage is 0.92.
As for U38C A62G A94G A117G, the self-cleavage came to 1.81.
As to U38C A54G A114U, the self-cleavage turned out to be 0.08.
On to U39A A52G A68G, for which the self-cleavage was 0.77.
As to U39A A91G A94G, the self-cleavage was found to be 1.15.
The same measure for U38C A110U C112U: 0; for U43A A47G A67G A86G: 1.36.
As to U39A A89G G104A, the self-cleavage turned out to be 0.07.
The same measure for U38C A67G A95G U100A: 0.71; for U38G A78U C85U A114C: 0.02; for U39C U57C A59G A66U U120A: 1.59.
